Patent publication US11542297B2, “Compositions and methods for treating CNS disorders” (Sage Therapeutics, Inc., priority 2014, dated 2023)
For at least one compound, name, drawing or mass did not settle the structure.

What follows are compounds tested against rat brain cortical membranes ([35S]-TBPS binding, GABA receptor complex) (assay: Steroid inhibition of [35S]-TBPS binding). Conditions: in the presence of 5 μM GABA, read-out: 35S-TBPS Radioligand Displacement (IC50).
Procedure: TBPS binding assays using rat brain cortical membranes in the presence of 5 μM GABA has been described (Gee et al, J. Pharmacol. Exp. Ther. 1987, 241, 346-353; Hawkinson et al, Mol. Pharmacol. 1994, 46, 977-985; Lewin, A. H et al., Mol. Pharmacol. 1989, 35, 189-194).
Briefly, cortices are rapidly removed following decapitation of carbon dioxide-anesthetized Sprague-Dawley rats (200-250 g). The cortices are homogenized in 10 volumes of […] using a glass/teflon homogenizer and centrifuged at 1500×g for 10 min at 4° C. The resultant supernatants are centrifuged at 10,000×g for 20 min at 4° C. to obtain the P2 pellets. The P2 pellets are resuspended in 200 mM NaCl/50 mM Na—K phosphate pH 7.4 buffer and centrifuged at 10,000×g for 10 min at 4° C. This washing procedure is repeated twice and the pellets are resuspended in 10 volumes of buffer. Aliquots (100 μL) of the membrane suspensions are incubated with 3 nM [^35S]-TBPS and 5 μL aliquots of test drug dissolved in dimethyl sulfoxide (DMSO) (final 0.5%) in the presence of 5 μM GABA. The incubation is brought to a final volume of 1.0 mL with buffer. […] Following a 90 min incubation at room temp, the assays are terminated by filtration through glass fiber filters (Schleicher and Schuell No. 32) using a cell harvester (Brandel) and rinsed three times with ice-cold buffer. Filter bound radioactivity is measured by liquid scintillation spectrometry. Non-linear curve fitting of the overall data for each drug averaged for each concentration is done using Prism (GraphPad).
Various compounds are or can be screened to determine their potential as modulators of [^35S]-TBPS binding in vitro. These assays are or can be performed in accordance with the above discussed procedures.
In the case of `CCOC(=O)c1ccn(CC(=O)[C@H]2CC[C@H]3[C@@H]4CC[C@H]5C[C@H](O)[C@@H](OCC)C[C@]5(C)[C@H]4CC[C@]23C)n1` [Compound 40], the IC50 is reported as < 10 nM. For `C[C@@]1(O)CC[C@@]2(C)[C@H](CC[C@@H]3[C@@H]2CC[C@]2(C)[C@@H](C(=O)Cn4ncnn4)CC[C@@H]32)C1` [Compound 54], the IC50 was < 10 nM. `C[C@@]1(O)CC[C@@]2(C)[C@H](CC[C@@H]3[C@@H]2CC[C@]2(C)[C@@H](C(=O)Cn4nnc5ccccc54)CC[C@@H]32)C1` [Compound 12] was tested, and the IC50 was < 10 nM. Compound `Cc1cnn(CC(=O)[C@H]2CC[C@H]3[C@@H]4CC[C@@H]5C[C@](C)(O)CC[C@]5(C)[C@H]4CC[C@]23C)n1` [Compound 13] has an IC50 of 10 to 50 nM.
